Test results taken from PMC12136788.
This is one part of the list.

T1: UNK ZnF1-3 (human, UniProt Q9C0B0 31-174)
T1 sequence: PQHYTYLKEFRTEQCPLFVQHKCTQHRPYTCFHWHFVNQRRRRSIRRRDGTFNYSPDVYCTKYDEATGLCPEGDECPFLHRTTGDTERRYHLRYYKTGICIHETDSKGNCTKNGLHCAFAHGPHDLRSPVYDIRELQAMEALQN

B1: chr7:54825262:54825263:-_ENSG00000132432_ENST00000352861|hu_hu|hu_hu_hu_mus_False|28_88 (ssRNA)
RNA: GGGAGUUCUACAGUCCGACGAUCCUGCCGGCUGGGCUCCACAAACUUUACCUGAUCAUCCAUGUUUGUUGGAUGGCGGAUUGAGAGCGUAGAGACACGUAGCUCAGGGAGCUUGCUAGCCCAACGGAACCGGAAGCUGGCAACCAACAGAGGAUUGAGCAUCA
B2: chr11:87793471:87793472:-_ENSMUSG00000020483_ENSMUST00000020775|mus_mus|motif|central (ssRNA)
RNA: GGGAGUUCUACAGUCCGACGAUCAAUGGGCUGGGGAAAAAAAAAUAGCUAGAUUUCCCCACCCCUUACAGUGUCAACCCGGUGCGAGUUCUGAAUGUGAUUCAUAAGAAUCAGCAGCUCAAUUGGCAAUGACAACCCCCACCCCAACAGAGGAUUGAGCAUCA
B3: 59068870_59068990_946_CDS_ENSMUSG00000038206_ENSMUST00000040218|mouse|control|control (ssRNA)
RNA: GGGAGUUCUACAGUCCGACGAUCCUUGGUUAUAAGAGUUUCAAGGUACUCCCCACGCUCUUCAGGGGCAUGAAUAUGACGAAAAAAUUCUCUCAGUGCAUUCGGCAAGAACUGAUUUCUAAAAUUAUGCAAGGUUACAAGGUCCAACAGAGGAUUGAGCAUCA
B4: 31426640_31426760_2545_CDS_ENSG00000134644_ENST00000257075|human|control|control (ssRNA)
RNA: GGGAGUUCUACAGUCCGACGAUCUCGAAAAUCUUCCAAAAGCCUGCUCCUGCCAGAAGGCAUGACAUCAGACAUUCCAUAUCGCAAACGAGAGGAAGAGAAAAGAGUGCUGCUCGGGCUGAAGAGGCUGGAGGCGCUGCUUGCCAACAGAGGAUUGAGCAUCA
B5: chr9:95013113:95013114:-_ENSG00000196305_ENST00000443024|hu_hu|hu_hu_hu_mus_False|1_48 (ssRNA)
RNA: GGGAGUUCUACAGUCCGACGAUCCUCAGUCAGAAAGGGCGUGUAAGGGGCCAUCAGUCUGCACAGAGAAAGCAGGACACUGAACAGGGUUUCUAGGGCCAUGACACAGUCUUCCACCCCACUCUCACCCUUUAACCUUCUGCGCAACAGAGGAUUGAGCAUCA
B6: chr16:94664741:94664742:+_ENSMUSG00000040785_ENSMUST00000117648|mus_hu|mus_mus_mus_hu_False|28_108 (ssRNA)
RNA: GGGAGUUCUACAGUCCGACGAUCUGGCAUGGAUCUUGGUAGCUGAUAUUCAGGAGAAAGGCUGGCCAAGGGUGUAUAUAUGCUGGUGUACUGGGGCAAACCUGGUACCAUGUUAAUGUAUGCUGGCGGUGUCUGGGUGAUAUCCAACAGAGGAUUGAGCAUCA

Molecular target: T1, UNK ZnF1-3
Assay: nsRBNS (natural sequence RNA bind-n-seq); RBNS binding buffer (assumed for nsRBNS): 25 mM Tris pH 7.5, 150 mM KCl, 3 mM MgCl2, 0.01% Triton X-100, 500 ug/ml BSA, 20 U/ml SUPERase-In, 4 C; UNK is unkempt and MSI1 is Musashi-1; names of the RNAs are library labels; protein concentration not given here; high values mean tight binding

Binder | binding signal [enrichment R]
B1 | 0.992
B2 | 0.747
B3 | 1.12
B4 | 1.66
B5 | 0.937
B6 | 1.02
